Measured values from US20250296996A1, “ANGIOPOIETIN-RELATED PROTEIN 7-SPECIFIC ANTIBODIES AND USES THEREOF” (Broadwing Bio, Inc., priority 2022, published 2025).

What was measured:
[1] = system: rabbit ANGPTL7 protein (P66, rabbit ANGPTL7-his); experiment: Octet HTX binding kinetics to P66 (rabbit ANGPTL7-his); conditions: P66 @ 200 nM
Procedure: (§1) Experiments were also conducted to determine the reactivity and dissociation constants (KA) of anti-ANGPTL7 antibodies with the rabbit ANGPTL7 protein. Binding experiments were performed on Octet HTX (ForteBio) in Rx PBS, pH 7.4, 0.1 mg/mi BSA, 0.05% Sodium Azide, and 0.02% Tween 20. Antibodies at a concentration of 50 nM were loaded on pre-hydrated AHC biosensors for 5 min. The loaded sensors were dipped into monovalent P66 (rabbit ANGPTL7-his) at a concentration of 200 nM for 5 min of association, followed by 10 min of dissociation. Results were analyzed with ForteBio Data Analysis 11.1 and fit to a 1:1 binding model to determine the monovalent KD. Responses (nm) at the end of association were also determined (Table 6).

[2] = molecular target: T1, human ANGPTL7 GGPGG_sub-his protein (P63) (Homo sapiens, UniProt O43827, INS58GGPG/L59G); experiment: Octet HTX binding kinetics to P63 (huANGTPL7-GGPGG_sub-his); conditions: P63 @ 100 nM
T1 construct: Additionally, the native signal peptide was removed and replaced with a signal peptide conducive to recombinant expression; made in house; host or cells: human embryonic kidney cells (transient transfection, secreted)
T1 sequence (O43827 with tags, fused parts or gaps INS58GGPG/L59G): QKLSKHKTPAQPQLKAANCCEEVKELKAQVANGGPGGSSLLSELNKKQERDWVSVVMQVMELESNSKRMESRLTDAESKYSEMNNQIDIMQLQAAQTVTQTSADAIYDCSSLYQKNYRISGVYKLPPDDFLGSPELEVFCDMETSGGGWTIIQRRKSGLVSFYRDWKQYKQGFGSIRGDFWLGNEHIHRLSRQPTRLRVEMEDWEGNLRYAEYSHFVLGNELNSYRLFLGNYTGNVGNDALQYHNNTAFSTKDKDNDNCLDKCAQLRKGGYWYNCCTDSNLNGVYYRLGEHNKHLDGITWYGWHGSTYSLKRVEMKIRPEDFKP
Procedure: Experiments were also conducted to determine the reactivity and dissociation constants (KD) of anti-ANGPTL7 antibodies with the human ANGPTL7 GGPGG_sub-his protein. Binding experiments were performed on Octet HTX (ForteBo) in 1×PBS, pH 7.4, 0.1 mg/mi BSA, 0.05% Sodium Azide, and 0.02% Tween 20. Antibodies at a concentration of 50 nM were loaded on pre-hydrated AHC biosensors for 5 min. The loaded sensors were dipped into monovalent P63 (huANGTPL7-GGPGG_sub-his) at a concentration of 100 nM for 5 min of association, followed by 10 min of dissociation. Results were analyzed with ForteBio Data Analysis 11.1 and fit to a 1:1 binding model to determine the monovalent KD.

[3] = molecular target: T2, mouse ANGPTL7 protein (muANGPTL7-his, R&D Systems) (Mus musculus, UniProt Q8R1Q3); experiment: Octet HTX binding kinetics to muANGPTL7-his; conditions: muANGPTL7-his @ 200 nM
T2 construct: His; purchased R&D Systems
T2 sequence (Q8R1Q3 22-337): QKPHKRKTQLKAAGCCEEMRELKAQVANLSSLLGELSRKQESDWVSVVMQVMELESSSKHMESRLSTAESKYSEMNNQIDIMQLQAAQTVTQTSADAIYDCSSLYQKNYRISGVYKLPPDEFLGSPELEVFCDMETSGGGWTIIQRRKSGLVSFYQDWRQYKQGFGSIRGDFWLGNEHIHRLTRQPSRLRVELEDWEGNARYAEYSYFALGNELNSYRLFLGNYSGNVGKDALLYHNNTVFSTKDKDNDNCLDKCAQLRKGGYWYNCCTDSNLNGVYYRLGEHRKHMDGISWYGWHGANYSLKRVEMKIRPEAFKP
Procedure: as §1, with “(KD)” for “(KA)”, “mouse” for “rabbit”, “1×PBS,” for “Rx PBS,”, “[…].” for “min.”, “muANGPTL7-his (R&D Systems)” for “P66 (rabbit ANGPTL7-his)”, “5).” for “6).”

[4] = molecular target: T3, human ANGPTL7-his protein (P62, huANGPTL7-his) (Homo sapiens, UniProt O43827, L59P/L84P); experiment: Octet HTX binding kinetics to P62 (huANGPTL7-his); conditions: P62 @ 250 nM, 3X dilution
T3 construct: Additionally, the native signal peptide was removed and replaced with a signal peptide conducive to recombinant expression; made in house; host or cells: human embryonic kidney cells (transient transfection, secreted)
T3 sequence (O43827 27-346 L59P/L84P): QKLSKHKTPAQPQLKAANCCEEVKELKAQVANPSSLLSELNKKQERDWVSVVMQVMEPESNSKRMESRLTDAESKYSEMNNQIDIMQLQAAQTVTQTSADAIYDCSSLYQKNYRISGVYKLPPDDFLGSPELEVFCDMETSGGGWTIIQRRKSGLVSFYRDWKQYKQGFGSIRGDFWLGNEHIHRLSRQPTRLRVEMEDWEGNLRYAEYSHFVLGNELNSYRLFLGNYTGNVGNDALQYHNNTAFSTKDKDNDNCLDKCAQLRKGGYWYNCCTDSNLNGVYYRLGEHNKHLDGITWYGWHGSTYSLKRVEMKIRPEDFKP
Procedure: Experiments were also conducted to determine the reactivity and dissociation constants (KD) of anti-ANGPTL7 antibodies with the human ANGPTL7-his protein. Binding experiments were performed on Octet HTX (ForteBio) in 1×PBS, pH 7.4, 0.1 mg/mi BSA, 0.05% Sodium Azide, and 0.02% Tween 20. To measure monovalent binding kinetics, antibodies at a concentration of 50 nM were loaded on pre-hydrated AHC biosensors for 5 min. The loaded sensors were dipped into monovalent P62 (huANGPTL7-his) at a range of concentration from 0.343-250 nM (a serial 3-fold dilution) for 5 min association, followed by 10 min dissociation. Results were analyzed with ForteBio Data Analysis 11.1 and fit globally to a 1:1 binding model to determine the monovalent KD (Table 3).

B1: ATX-P-433: human anti-ANGPTL7 monoclonal antibody; HCDR1-3 SEQ ID NOs 42, 58, 73; LCDR1-3 SEQ ID NOs 94, 106, 118 (antibody)
heavy: EVQLVESGGGLVQPGRSLRLSCAASGFTFDDFAMHWVRQGPGKGLEWVSGIGWNSGSIGYADSVKGRFTISRDNAKNSLYLQMNSLRAEDTALYYCAKAPDYGDYYFDYWGQGTLVTVSS
light: DIQMTQSPSSLSASVGDRVTITCRASQSISIYLNWYQQKPGTAPKLLIYAASSLQSGVPSRFSGSGSGTDFTLTISSLQPEDFAAYYCQQSYTTPLTFGGGTKVEIKRTVAAPSVFIFPPSDEQLKSGTASVVCLLNNFYPREAKVQWKVDNALQSGNSQESVTEQDSKDSTYSLSSTLTLSKADYEKHKVYACEVTHQGLSSPVTKSFNRGEC
[1]
  kdis(1/8): 7.27E−04 1/8
  kon: 104000 M⁻¹ s⁻¹
[2]
  kdis: 0.00253 s⁻¹
  kon: 134000 M⁻¹ s⁻¹
[3]; at end of association
  Response: 0.17 nm
[3]; monovalent KD, 1:1 model
  KD (M): P.F./L.R.
[3]
  kdis(1/s): P.F./L.R.
  kon(1/Ms): P.F./L.R.
[4]
  kdis(1/s) or (koff): 0.00056 s⁻¹
  kon: 431000 M⁻¹ s⁻¹
